Laboratory results published in PubChem BioAssay AID686979 (National Center for Advancing Translational Sciences (NCATS), 2013).
About 50,000 (12%) of roughly 420,000 compounds were called active. Inconclusive results, whose numbers are uncertain, are shown with a selection of clear calls. Calls come from the whole dose curve; as a rule, active = well fitted inhibition curve with a large enough effect; inconclusive = small, poorly fitted or top-dose-only effect; inactive = flat fitted curve, though single readings scatter. Potencies of inconclusive entries are left out as doubtful fits.

Test: qHTS for Inhibitors of human tyrosyl-DNA phosphodiesterase 1 (TDP1): qHTS in cells in presence of CPT; note: nearly all actives have a fitted effect of over 55% in size
Details: chicken DT40 Tdp1-/-;hTDP1 cells + 20 nM CPT, ATP luminescence, 48 h; activity change, negative = growth inhibition: at 46.2 µM (top of the series)
How it was run: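 Chicken DT40 Tdp1-/- cells stably complemented with human TDP1 were seeded at 400 cells/well in medium containing 20 nM camptothecin, exposed to pin-transferred compounds, and grown at 37 °C for at least 48 hr. Viability was read as ATP luminescence.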
% is set by controls: 0 for no effect and ±100 for the full control effect; potency is the fitted concentration of half-maximal effect; tags give direction and shape of the fitted curve.

| SMILES | Potency | activity change, negative = growth inhibition |
| --- | --- | --- |
| COCCN(C(=O)c1ccccc1F)c1nnc(-c2ccc(OC)cc2)s1 | inconclusive [inhibitor, single point] |  |
| COc1ccc(CCN2CC(C(=O)NCc3c(C)n[nH]c3C)CCC2=O)cc1 (configuration not stated) | inactive |  |
| CCC(C)(C)n1nnnc1CN(Cc1cc2cc(OC)c(OC)cc2[nH]c1=O)C1CCCC1 | inactive |  |
| COc1ccc(NC(=O)CSc2nnc(-c3cccs3)n2Cc2ccco2)cc1OC | inconclusive [inhibitor, partial curve] |  |
| COc1ccc(C2=NOC(C(=O)Nc3ccc4c(c3)OCCO4)C2)c(OC)c1 (configuration not stated) | inconclusive [inhibitor, partial curve] |  |
| COc1ccc(Cc2nc3ccc(C(=O)NCc4ccccc4Cl)cc3o2)cc1 | active: 16.4 µM |  |
| Cc1ccc(C)c(N2CCN(C(=O)c3cnn(-c4ccccc4Cl)c3C3CCN(C(=O)OC(C)(C)C)CC3)CC2)c1 | active: 13 µM |  |
| Cc1snc(S(=O)(=O)/C(C#N)=N/Nc2cccc(C(F)(F)F)c2)c1C#N | active: 16.4 µM |  |
| Cc1oc2c(C)c3oc(=O)c(CCC(=O)NCCCn4ccnc4)c(C)c3cc2c1C | inconclusive [inhibitor, single point] |  |
| O=C1OC(C(=O)Nc2cc(C(F)(F)F)ccc2Cl)Cc2ccccc21 (configuration not stated) | inactive |  |
| O=C(NNC(=S)Nc1ccc(Cl)cc1)c1ccccc1OC(F)F | inconclusive [inhibitor, single point] |  |
| CCOC(=O)C1CCN(c2cc(=O)n(Cc3ccc(F)cc3)c(=O)[nH]2)CC1 | inactive |  |
| CCN(CC)c1nc(N)c2c(N)nc3c(c2c1C#N)CC(c1ccccc1)O3 (configuration not stated) | inconclusive [inhibitor, single point] |  |
| CC(=O)NC(c1cccc(F)c1)c1nc(-c2ccoc2)cs1 (configuration not stated) | inconclusive [inhibitor, single point] |  |
| COc1ccccc1Nc1nc(C)c(C(=O)Nc2ccccc2)s1 | active: 14.6 µM |  |
| CC(=O)N1CCN(Cc2cc(=O)oc3ccc4ccccc4c23)CC1 | inconclusive [inhibitor, single point] |  |
| O=C(CCc1nc2ccccc2c(=O)[nH]1)N1CCN(S(=O)(=O)c2ccccc2Br)CC1 | active: 20.6 µM |  |
| O=C(c1c(F)cccc1Cl)N1CCN(c2ccccn2)CC1 | inactive |  |
| CCN(CC(=O)NCc1ccc(Cl)cc1)C(=O)COc1cccc(C(F)(F)F)c1 | inconclusive [inhibitor, partial curve] |  |
| CCc1ccc(NC(=O)C(CC)n2c(=O)c(-c3ccccc3NC(C)=O)nc3ccccc32)cc1 (configuration not stated) | active: 23.1 µM |  |
| CC(C)N(C)c1ncnc2c1ncn2[C@H]1CN(Cc2ccc3c(c2)OCO3)C[C@@H](CO)O1 | inactive |  |
| CC(C)(C)OC(=O)C[C@@H]1C/C=C\C[C@@H](CC(=O)N(CCO)Cc2ccccc2)C(=O)N[C@@H](c2ccccc2)COC1=O | inconclusive [inhibitor, single point] |  |
| C[C@@H](NC(=O)c1ncn(Cc2ccccc2)c1C(=O)N[C@H](C)c1ccccc1)c1ccccc1 | inactive |  |
| Cc1cc(C(=O)NNC(=O)c2ccccc2F)c2ccccc2n1 | inactive |  |

| SMILES | Potency | activity change, negative = growth inhibition |
| --- | --- | --- |
| COc1ccc(S(=O)(=O)Nc2cccc3c2O[C@H](CN(C)Cc2ccc(Cl)c(Cl)c2)[C@@H](C)CN([C@H](C)CO)C3=O)cc1 | active: 20.6 µM |  |
| CCN(CC)c1ccc(NC(=O)C2CCN(S(=O)(=O)c3cnc[nH]3)CC2)c(C)c1 | inconclusive [inhibitor, single point] |  |
| COc1ccc2[nH]cc(CCNC(=O)COc3cc(C)cc4oc(=O)cc(C)c34)c2c1 | inconclusive [inhibitor, single point] |  |
| O=C(NCC(c1ccco1)N1CCc2ccccc21)c1ccccc1Br (configuration not stated) | active: 20.6 µM |  |
| CCOC(=O)c1c(C)c(-c2ccccc2)n(CC(=O)NC(CC)Cc2ccccc2)c1C (configuration not stated) | inconclusive [inhibitor, single point] |  |
| COc1cc2c(c(OC)c1OC)-c1c(cc3c(c1OC)OCO3)C1OC2[C@@H](C)[C@H]1C (some centres not stated) | inconclusive [inhibitor, single point] |  |
| Cc1ccc(NC(=O)C2CC(=O)N(c3ccc(OC(C)C)cc3)C2)cc1 (configuration not stated) | inconclusive [inhibitor, single point] |  |
| CN(C)CCCN(C(=O)COc1ccccc1)c1nc2cc3c(cc2s1)OCO3 | inactive |  |
| C=Cc1ccccc1 | inactive |  |
| CS(=O)(=O)N1CCc2cc(-c3csc(NC(=O)Cc4ccccc4)n3)ccc21 | inconclusive [inhibitor, single point] |  |
| Cc1ccc(C)c(NS(=O)(=O)c2c(C)[nH]c(C)c2C(=O)N2CCCCC2)c1 | inactive |  |
| CC(C(=O)N1CCc2ccccc21)N1CCN(S(=O)(=O)c2ccc(C(F)(F)F)cc2)CC1 (configuration not stated) | inconclusive [inhibitor, partial curve, poor fit] |  |
| COc1ccccc1N1CCN(C(=O)c2cnn(-c3ccc(F)cc3F)c2C2CCNCC2)CC1 | inactive |  |
| O=C(Nc1ccc2oc(-c3cccnc3)nc2c1)c1ccc2c(c1)OCCO2 | inconclusive [inhibitor, partial curve] |  |
| Cc1cc(C)n(-c2nc(NCC(C)O)c3c4c(sc3n2)CCCC4)n1 (configuration not stated) | inconclusive [inhibitor, single point] |  |
| Cc1ccc(NC(=O)CS(=O)CC(=O)NC23CC4CC(CC(C4)C2)C3)cc1 (configuration not stated) | inactive |  |
| CC1CCCN(c2nc3c(c(=O)n(C)c(=O)n3C)n2CCSc2nc3ccccc3o2)C1 (configuration not stated) | active: 23.1 µM |  |
| CC1(c2cccc3ccccc23)OC(=O)c2ccccc21 (configuration not stated) | inconclusive [inhibitor, single point] |  |
| COc1ccc(CCNCC(=O)Nc2ccc(C(=O)N3CCCCC3)cc2)cc1 |  | inconclusive: -32.1% [inhibitor] |
| CCCCn1c(=O)n(CC(=O)Nc2c(CC)cccc2CC)c(=O)c2c1nc(CO)n2CCC | inactive |  |
| CCCCN(C(=O)CCC(=O)Nc1cc(C)on1)C(C(=O)NC1CCCC1)c1ccc(OC)cc1 (configuration not stated) | inconclusive [inhibitor, single point] |  |
| Cc1ccc(/C=N/NC(=O)C(NC(=O)c2ccccc2)c2n[nH]c(=O)c3ccccc23)cc1 (configuration not stated) | inactive |  |
| CCc1ccccc1N(C)C(=O)c1ccc2c(=O)n3c(nc2c1)CCCCC3 | inconclusive [inhibitor, single point] |  |
| CC1CC(C)CN(C(=O)c2cccc(N3C(=O)c4ccccc4C3=O)c2)C1 (configuration not stated) | inactive |  |

| SMILES | Potency | activity change, negative = growth inhibition |
| --- | --- | --- |
| CCn1c(SCC(=O)c2ccc(F)cc2)nnc1-c1ccoc1C | inconclusive [inhibitor, single point] |  |
| CCN(CC)C(=O)COc1ccc2c3c(c(=O)oc2c1)CCCC3 | inactive |  |
| NC(=O)c1ccccc1OCC(=O)N1CCCc2ccccc21 | inconclusive [inhibitor, single point] |  |
| COc1ccc(C(=O)O/N=C(\N)c2ccccc2)cc1 | inactive |  |
| COc1ccc(C(CNC(=O)c2cccc(S(=O)(=O)N3CCCc4ccccc43)c2)N(C)C)cc1 (configuration not stated) | inconclusive [inhibitor, single point] |  |
| CC1Cc2cc(/C(O)=C3/C(=O)C(=O)N(CCCn4ccnc4)C3c3ccc(F)cc3)ccc2O1 (configuration not stated) | inactive |  |
| COc1ccc(N2CCN(C(=O)CCc3c(C)nc4cc(-c5ccc(OC)cc5OC)nn4c3C)CC2)cc1 | active: 20.6 µM |  |
| COC(=O)C1=C(C)Nc2nc(SCc3ccccc3)[nH]c(=O)c2C1c1cccs1 (configuration not stated) | inconclusive [inhibitor, single point] |  |
| COc1cc(/C=C2/C(=N)N3C=CSC3=NC2=O)ccc1OCCOc1ccc(NC(C)=O)cc1 | inactive |  |
| O=C(/C=C/c1c(F)cccc1Cl)N1CCc2ccccc2C1 | inconclusive [inhibitor, single point] |  |
| COC(=O)N1C(=O)[C@@](c2ccccc2)(C2CCCCC2)N1C(=O)OC | inconclusive [inhibitor, single point] |  |
| CCCOc1ccc(C2C(=O)N(C3CCCCCC3)CC(=O)N2CCC)cc1OC (configuration not stated) | active: 23.1 µM |  |
| Cc1nc2c(N)nn(C)c2nc1C | inactive |  |
| COc1ccc(-n2ncc(C(=O)NC3CC3)c2C2CCN(C(=O)OC(C)(C)C)CC2)cc1 | inactive |  |
| Fc1cccc(Cc2c(-c3ccco3)nc3c4ccccc4ccn23)c1 | active: 6.51 µM |  |
| COc1cccc(N2CC(O)=C(c3nc4ccccc4s3)C2=N)c1 | active: 1.64 µM |  |
| C=C1SC(Nc2c(C)cc(C)cc2C)=NC12CCCCC2 | inconclusive [inhibitor, single point] |  |
| CN1CCN(c2nc3ccccn3c(=O)c2/C=C(\C#N)S(=O)(=O)c2ccc(Cl)cc2)CC1 | inactive |  |
| COc1ccccc1N1CCN(C(=O)c2cc3c(=O)n(C)c4ccccc4c3n2C)CC1 | active: 23.1 µM |  |
| CN(C)S(=O)(=O)c1ccc(C(=O)NCCSc2c(-c3ccc(Cl)cc3)[nH]c3ccccc23)cc1 | active: 4.11 µM |  |
| O=C(c1cccc(C(F)(F)F)c1)C1CCCN(Cc2cccn2-c2ccccn2)C1 (configuration not stated) | active: 14.6 µM |  |
| COc1ccc2nc(C)cc(SCC(=O)NNC(=O)COc3ccccc3)c2c1 |  | inconclusive: -31.7% [inhibitor] |
| Cc1cccc(Cn2c(SCCN3CCCCC3)nc3c2c(=O)[nH]c(=O)n3C)c1 | inconclusive [inhibitor, full curve, poor fit] |  |
| O=C(Nc1ccc2c(c1)OCO2)c1cc(C2CCCCN2C(=O)CCc2ccccc2)on1 (configuration not stated) | inconclusive [inhibitor, single point] |  |
